# In the supplement of paper PMC8728848:
# This is one part of the list.
# How the values were obtained:
# Assay in all cases: glycan array binding signal (z-score within array); higher = stronger binding
# Details in all cases: glycan notation: IUPAC condensed, linker removed
# [1] = target: Neu5Ac(a2-3)Gal(b1-3)GlcNAc(b1-6)GalNAc
# In short: (§1)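 The Consortium for Functional Glycomics database supplied 3228 glycan arrays, of which those lacking an available protein sequence were dropped. The binding signal, a within-array Z-score, was averaged across arrays of the same protein sequence and across linkers. Negative scores can be read as non-binding.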
# [2] = target: Neu5Ac(a2-3)Gal(b1-3)GlcNAc6S
# In short: as §1
# [3] = target: Neu5Ac(a2-3)Gal(b1-3)[Fuc(a1-4)]GlcNAc
# In short: as §1
# [4] = target: Neu5Ac(a2-3)Gal(b1-3)[Fuc(a1-4)]GlcNAc(b1-3)Gal(b1-3)[Fuc(a1-4)]GlcNAc
# In short: as §1
# [5] = target: Neu5Ac(a2-3)Gal(b1-3)[Fuc(a1-4)]GlcNAc(b1-3)Gal(b1-4)[Fuc(a1-3)]GlcNAc
# In short: as §1
# [6] = target: Neu5Ac(a2-3)Gal(b1-3)[GlcNAc(b1-6)]GalNAc
# In short: as §1
# [7] = target: Neu5Ac(a2-3)Gal(b1-3)[Neu5Ac(a2-6)]GalNAc
# In short: as §1
# [8] = target: Neu5Ac(a2-3)Gal(b1-3)[Neu5Ac(a2-6)]GlcNAc(b1-3)[Fuc(a1-3)[Gal(b1-4)]GlcNAc(b1-6)]Gal(b1-4)Glc
# In short: as §1
# [9] = target: Neu5Ac(a2-3)Gal(b1-3)]Neu5Ac(a2-3)Gal(b1-4)]GlcNAc
# In short: as §1
# [10] = target: Neu5Ac(a2-3)Gal(b1-4)Glc
# In short: as §1
# [11] = target: Neu5Ac(a2-3)Gal(b1-4)GlcNAc
# In short: as §1
# [12] = target: Neu5Ac(a2-3)Gal(b1-4)GlcNAc(b1-2)Man
# In short: as §1
# [13] = target: Neu5Ac(a2-3)Gal(b1-4)GlcNAc(b1-2)Man(a1-3)[GlcNAc(b1-4)][Neu5Ac(a2-3)Gal(b1-4)GlcNAc(b1-2)Man(a1-6)]Man(b1-4)GlcNAc(b1-4)GlcNAc
# In short: as §1
# [14] = target: Neu5Ac(a2-3)Gal(b1-4)GlcNAc(b1-2)Man(a1-3)[Neu5Ac(a2-3)Gal(b1-4)GlcNAc(b1-2)Man(a1-6)]Man(b1-4)GlcNAc(b1-4)GlcNAc
# In short: as §1
# [15] = target: Neu5Ac(a2-3)Gal(b1-4)GlcNAc(b1-2)Man(a1-3)[Neu5Ac(a2-3)Gal(b1-4)GlcNAc(b1-2)Man(a1-6)]Man(b1-4)GlcNAc(b1-4)[Fuc(a1-6)]GlcNAc
# In short: as §1
# [16] = target: Neu5Ac(a2-3)Gal(b1-4)GlcNAc(b1-2)Man(a1-3)[Neu5Ac(a2-6)Gal(b1-4)GlcNAc(b1-2)Man(a1-6)]Man(b1-4)GlcNAc(b1-4)GlcNAc
# In short: as §1
# [17] = target: Neu5Ac(a2-3)Gal(b1-4)GlcNAc(b1-2)[Neu5Ac(a2-3)Gal(b1-4)GlcNAc(b1-4)]Man(a1-3)[GlcNAc(b1-4)][Neu5Ac(a2-3)Gal(b1-4)GlcNAc(b1-2)[Neu5Ac(a2-3)Gal(b1-4)GlcNAc(b1-6)]Man(a1-6)]Man(b1-4)GlcNAc(b1-4)GlcNAc
# In short: as §1
# [18] = target: Neu5Ac(a2-3)Gal(b1-4)GlcNAc(b1-2)[Neu5Ac(a2-3)Gal(b1-4)GlcNAc(b1-4)]Man(a1-3)[GlcNAc(b1-4)][Neu5Ac(a2-3)Gal(b1-4)GlcNAc(b1-4)Man(a1-6)]Man(b1-4)GlcNAc(b1-4)GlcNAc
# In short: as §1
# [19] = target: Neu5Ac(a2-3)Gal(b1-4)GlcNAc(b1-2)[Neu5Ac(a2-3)Gal(b1-4)GlcNAc(b1-6)]Man(a1-6)[Neu5Ac(a2-3)Gal(b1-4)GlcNAc(b1-2)Man(a1-3)][GlcNAc(b1-4)]Man(b1-4)GlcNAc(b1-4)GlcNAc
# In short: as §1
# [20] = target: Neu5Ac(a2-3)Gal(b1-4)GlcNAc(b1-3)Gal
# In short: as §1
# [21] = target: Neu5Ac(a2-3)Gal(b1-4)GlcNAc(b1-3)Gal(b1-3)GlcNAc
# In short: as §1
# [22] = target: Neu5Ac(a2-3)Gal(b1-4)GlcNAc(b1-3)Gal(b1-4)GlcNAc
# In short: as §1
# [23] = target: Neu5Ac(a2-3)Gal(b1-4)GlcNAc(b1-3)Gal(b1-4)GlcNAc(b1-2)Man(a1-3)[Neu5Ac(a2-3)Gal(b1-4)GlcNAc(b1-3)Gal(b1-4)GlcNAc(b1-2)Man(a1-6)]Man(b1-4)GlcNAc(b1-4)GlcNAc
# In short: as §1
# [24] = target: Neu5Ac(a2-3)Gal(b1-4)GlcNAc(b1-3)Gal(b1-4)GlcNAc(b1-3)Gal(b1-4)GlcNAc
# In short: as §1
# [25] = target: Neu5Ac(a2-3)Gal(b1-4)GlcNAc(b1-3)Gal(b1-4)GlcNAc(b1-3)Gal(b1-4)GlcNAc(b1-2)Man(a1-3)[Neu5Ac(a2-3)Gal(b1-4)GlcNAc(b1-3)Gal(b1-4)GlcNAc(b1-3)Gal(b1-4)GlcNAc(b1-2)Man(a1-6)]GalNAc
# In short: as §1
# [26] = target: Neu5Ac(a2-3)Gal(b1-4)GlcNAc(b1-3)Gal(b1-4)GlcNAc(b1-3)GalNAc
# In short: as §1
# [27] = target: Neu5Ac(a2-3)Gal(b1-4)GlcNAc(b1-3)Gal(b1-4)GlcNAc(b1-3)[Neu5Ac(a2-3)Gal(b1-4)GlcNAc(b1-3)Gal(b1-4)GlcNAc(b1-6)]GalNAc
# In short: as §1
# [28] = target: Neu5Ac(a2-3)Gal(b1-4)GlcNAc(b1-3)Gal(b1-4)GlcNAc(b1-6)[Gal(b1-3)]GalNAc
# In short: as §1
# [29] = target: Neu5Ac(a2-3)Gal(b1-4)GlcNAc(b1-3)Gal(b1-4)[Fuc(a1-3)]GlcNAc
# In short: as §1
# [30] = target: Neu5Ac(a2-3)Gal(b1-4)GlcNAc(b1-3)GalNAc
# In short: as §1
binder,measurement,setting,value
"CC1G-10077 (Coprinopsis cinerea), A8NDT7 (protein) MALNEGVYWIRNSRFTNKVLDLDAANVAKGTSILDFNEHGTFNENHNQLWIVERFQSRDTYLIRSVHSNLVLDLSQGLSANGTPILCWTQHGGTNQQWRIEWVKDDNKTPLYRIVSVATGTAISHNEDDSSAYTVAWSVDDGPKQLWSFDPFVTPLLYRLRVKSTSRVLDLAAASADNGTLALAWEQHTAITKRNQLWWLPYRSGAEEYTIQCLETSTVADLSGGNSGNGTPIYGWQSHGGRNQQWKFEPTSDSGDYYHIKNVEGGSVMDAYMNDSQKRVGGWSNNGGDNQKWLLDPLPSPGPGWVLIQNGGTGKFLCSTPSGDIGTADGPETVYDYSVQWRFIQREYTGVYHVVNRATGAYLRQIGTSMPSIGLAEENDDELKDWWMLETYDNSEIGLASIISRWTGNVLDHYGGVSVQALDNNTENSYRSWAIIPARDWLTSFSLVNGQGGLCLAAQYAREETRLSTTANVNDFHAQWVFRKPSGSSGYTIQNKYNNHYVGGTSARWELVVCCNKYFGIRNTSTQKYLAIEDGQVTFQDQDMTDRKQCWELCSGRATDTSGNDYDLIYMDDDLLEVMIPWVGDKQGDLKHYIEKRATKKPPKDKGGWQLPAAGLIKKPKFNDIRQLLQELIEQWEWDVVNEEREQIQTLVSIDEAEARRLLGRRPHPDIVAAYQRSRSSTLFRIDRQGYFNIAGDRYVNIQGQYGDDSYFHIALPVGVRFGREQIRRFLRDSLDRSTSVTITPTTCKPPSGGPDYNRDPDSDGDNSWIKWTIAVVGTSAIKHSEL",glycan array binding signal (z-score),[1],0.95
same,glycan array binding signal (z-score),[2],-0.458
same,glycan array binding signal (z-score),[3],-0.473
same,glycan array binding signal (z-score),[4],-0.472
same,glycan array binding signal (z-score),[5],-0.475
same,glycan array binding signal (z-score),[6],-2.79
same,glycan array binding signal (z-score),[7],-0.486
same,glycan array binding signal (z-score),[8],-0.444
same,glycan array binding signal (z-score),[9],-0.37
same,glycan array binding signal (z-score),[10],-0.638
same,glycan array binding signal (z-score),[11],-0.45
same,glycan array binding signal (z-score),[12],-0.331
same,glycan array binding signal (z-score),[13],-0.383
same,glycan array binding signal (z-score),[14],-0.503
same,glycan array binding signal (z-score),[15],-0.46
same,glycan array binding signal (z-score),[16],-0.436
same,glycan array binding signal (z-score),[17],-0.422
same,glycan array binding signal (z-score),[18],-0.489
same,glycan array binding signal (z-score),[19],-0.496
same,glycan array binding signal (z-score),[20],-0.52
same,glycan array binding signal (z-score),[21],-0.453
same,glycan array binding signal (z-score),[22],-0.43
same,glycan array binding signal (z-score),[23],-2.14
same,glycan array binding signal (z-score),[24],-0.463
same,glycan array binding signal (z-score),[25],-0.417
same,glycan array binding signal (z-score),[26],-0.473
same,glycan array binding signal (z-score),[27],-0.151
same,glycan array binding signal (z-score),[28],-0.408
same,glycan array binding signal (z-score),[29],-0.473
same,glycan array binding signal (z-score),[30],-0.461
